± gives the standard deviation of the averaged measurements. Over roughly 33,000 sequences, “E-score (dimensionless, -0.5 to 0.5)” has its median near -0.049; the highest 2% begin near 0.37. Some of the results follow.
Each sequence was assayed on T1, PmTbr T-box DNA-binding domain (GST fusion) (assay: PBM E-score of 8-mer (E-score (dimensionless, -0.5 to 0.5)); Tbr is Tbrain of the sea star Patiria miniata (Pm) or the sea urchin Strongylocentrotus purpuratus (Sp); higher = stronger binding preference; most listed sequences are background and not binding sites). Details: the construct has about 5 more residues each side.
T1 sequence: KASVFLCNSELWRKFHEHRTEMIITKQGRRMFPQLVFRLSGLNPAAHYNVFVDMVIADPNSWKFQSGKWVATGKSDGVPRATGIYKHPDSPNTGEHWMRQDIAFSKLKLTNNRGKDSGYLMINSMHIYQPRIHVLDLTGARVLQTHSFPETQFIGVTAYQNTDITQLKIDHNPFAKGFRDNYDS
Procedure, shortened: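 Primer extension turned Universal Agilent oligonucleotide arrays double-stranded. They were incubated with 200 nM protein in PBS (pH 7.5); the protein was a GST-fused Tbr T-box DNA-binding domain expressed in BL21 E. coli at 20 °C and purified on glutathione. Every ungapped 8-mer was scored from the scanned, quantified probe intensities, and the Universal PBM Analysis Suite gave each an enrichment E-score averaged over duplicate arrays.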

In order of rising “PBM E-score of 8-mer” value:
1. GAGCTCTA  -0.351 ± 0.028
2. AGACCTAC  -0.292 ± 0.035
3. AGGGGCAC  -0.267 ± 0.066
4. GGTTCGGA  -0.266 ± 0.021
5. AAATGGGA  -0.265 ± 0.032
6. GATACGGC  -0.26 ± 0.04
7. ATTTAACC  -0.254 ± 0.013
8. AGGTTCAA  -0.252 ± 0.044
9. GAAGTTCC  -0.252 ± 0.073
10. AGTTCAGG  -0.237 ± 0.059
11. GCCTAATA  -0.237 ± 0.034
12. CTGAACCC  -0.229 ± 0.051
13. CTGAAAGA  -0.227 ± 0.088
14. GACCCGGC  -0.22 ± 0.057
15. ACGTCCGG  -0.218 ± 0.018
16. ATAGTAGG  -0.216 ± 0.0094
17. GGATAAAA  -0.2119 ± 0.0021
18. CACGGGCC  -0.211 ± 0.0096
19. AGACGGCC  -0.209 ± 0.017
20. CCTTCCCA  -0.209 ± 0.0085
21. TAGACCGA  -0.208 ± 0.12
22. GCGTAGTA  -0.206 ± 0.003
23. GTACTCCA  -0.205 ± 0.026
24. TCTAGACA  -0.202 ± 0.044
25. GCCAGGCC  -0.201 ± 0.02
26. GGCAATAC  -0.2 ± 0.057
27. TAATCGAA  -0.2 ± 0.021
28. TAATCTAA  -0.195 ± 0.051
29. GAATTCTA  -0.194 ± 0.041
30. GGGCTTTA  -0.191 ± 0.037
31. TCTACAGA  -0.188 ± 0.069
32. AGTCCCGA  -0.181 ± 0.05
33. CTCCGGGA  -0.177 ± 0.035
34. TAGAACAA  -0.174 ± 0.078
35. CTTCATAC  -0.169 ± 0.023
36. AGTTGAAA  -0.168 ± 0.038
37. CCACTGCA  -0.155 ± 0.0029
38. CCTTTGCC  -0.15 ± 0.051
39. AACGTCAT  -0.148 ± 0.028
40. ACGCTGAA  -0.147 ± 0.063
41. CCAAGAGA  -0.146 ± 0.038
42. CTCTATGC  -0.142 ± 0.027
43. CAGATCAA  -0.142 ± 0.082
44. CGAACCCC  -0.137 ± 0.043
45. CGAGACCG  -0.13 ± 0.033
46. CTATAAAA  -0.13 ± 0.019
47. GTCCGAAC  -0.124 ± 0.011
48. AAGAAGCC  -0.123 ± 0.078
49. CCTAATAG  -0.122 ± 0.052
50. GGCTTGAA  -0.122 ± 0.032
51. GAGTAATA  -0.115 ± 0.015
52. CATCTAAG  -0.111 ± 0.011
53. AGCAAACG  -0.108 ± 0.084
54. AGACTCTC  -0.107 ± 0.007
55. GGGCGGAC  -0.106 ± 0.002
56. CGTTGCAG  -0.104 ± 0.023
57. CGTTTTGA  -0.104 ± 0.019
58. CTGTGCGC  -0.102 ± 0.077
59. AAGACCCA  -0.102 ± 0.043
60. AAAAGATA  -0.0989 ± 0.016
61. TACCTAAA  -0.095 ± 0.033
62. CCCTCTCC  -0.0929 ± 0.0084
63. CTTATGGC  -0.0928 ± 0.041
64. CCTAGCTC  -0.0926 ± 0.0015
65. AACATGCA  -0.0907 ± 0.015
66. GTGCTTTA  -0.0904 ± 0.095
67. ATAGCCCC  -0.0885 ± 0.02
68. CCAGTGGA  -0.0867 ± 0.012
69. AAGACCGT  -0.0844 ± 0.049
70. CTTATCCA  -0.081 ± 0.014
71. CCATCCCG  -0.0752 ± 0.0067
72. CGAGGAGC  -0.0722 ± 0.028
73. AAGCAGAC  -0.0712 ± 0.048
74. AGGGGTTA  -0.0709 ± 0.031
75. CCGGTTGC  -0.0645 ± 0.0032
76. CCGGCGGC  -0.0645 ± 0.0043
77. CCAACCCG  -0.0643 ± 0.028
78. GCTAGCCA  -0.0642 ± 0.047
79. AAGTAACC  -0.0622 ± 0.014
80. AGCATCAA  -0.0566 ± 0.017
81. ACATCTAG  -0.0563 ± 0.0079
82. CCACAAGA  -0.0528 ± 0.056
83. TCCAGCGA  -0.0506 ± 0.064
84. CCAGAAGC  -0.05022 ± 0.0004
85. ACCATGGC  -0.0471 ± 0.08
86. CGCGTATA  -0.0467 ± 0.058
87. CAAATGAC  -0.0464 ± 0.045
88. AGTGGGAT  -0.0452 ± 0.049
89. AATTCGTA  -0.0402 ± 0.067
90. AGACCCTG  -0.0402 ± 0.1
91. GGTTTTAA  -0.0399 ± 0.059
92. AACTCAAC  -0.0361 ± 0.029
93. TAACTCCA  -0.0323 ± 0.0018
94. CGGATTAA  -0.0265 ± 0.037
95. CTAATACA  -0.025 ± 0.027
96. AGTTAGGC  -0.0248 ± 0.0073
97. ATAGCATG  -0.0232 ± 0.021
98. TATCTCAA  -0.0203 ± 0.0083
99. GCCAAGCA  -0.0191 ± 0.018
100. CCGTGGAC  -0.0146 ± 0.033
101. CTTGAGCC  -0.0122 ± 0.073
102. CACGACTA  -0.0119 ± 0.023
103. CAAGATGG  -0.0109 ± 0.057
104. TCGTGGAA  -0.0067 ± 0.0066
105. CATCTGCG  -0.00142 ± 0.032
106. ATGGGATG  0.00088 ± 0.047
107. ACATTACT  0.00117 ± 0.07
108. GTCATCAA  0.00227 ± 0.021
109. CCAACGAA  0.00483 ± 0.048
110. ATAACTGA  0.00612 ± 0.019
111. CCTTTGGC  0.0109 ± 0.046
112. CGAATTTC  0.0127 ± 0.024
113. ACATTAGA  0.0204 ± 0.057
114. AACCGATA  0.0224 ± 0.036
115. CTAGCCGA  0.0265 ± 0.0029
116. AAGCGAGA  0.0275 ± 0.00037
117. GTTGAAAC  0.0305 ± 0.025
118. AGTGGACA  0.0305 ± 0.022
119. GCAACTAC  0.0449 ± 0.047
120. CGAGATTA  0.05103 ± 0.00044
121. AGTGGAAA  0.0588 ± 0.0019
122. CTCGCTGC  0.0611 ± 0.026
123. GCCTTCGA  0.0621 ± 0.015
124. CAAATTGG  0.0638 ± 0.043
125. AACTCCTG  0.0651 ± 0.059
126. AAATAACA  0.0689 ± 0.096
127. GCACACGC  0.074 ± 0.0021
128. GAGAGCGA  0.0903 ± 0.025
129. CACTAGAA  0.0919 ± 0.016
130. CCATTAAC  0.0966 ± 0.0036
131. CGGGATAA  0.105 ± 0.043
132. AGATGCGA  0.113 ± 0.0084
133. CCTCATTC  0.113 ± 0.0052
134. GTTACCGA  0.115 ± 0.019
135. CACAAACG  0.116 ± 0.011
136. ACCTAAGG  0.117 ± 0.074
137. ATGAGCGA  0.12 ± 0.015
138. TCGATAAA  0.122 ± 0.033
139. GCGGCACA  0.122 ± 0.027
140. ATCTAGCG  0.129 ± 0.017
141. GCCTTCAC  0.134 ± 0.019
142. CCGACAAG  0.134 ± 0.01
143. ATCGTATG  0.14 ± 0.033
144. ACCTCGGA  0.15 ± 0.011
145. CGCCTGGA  0.153 ± 0.0065
146. TGGCACAA  0.156 ± 0.017
147. CACTTTGG  0.157 ± 0.015
148. ATGCGTCA  0.161 ± 0.013
149. AATGGCGA  0.163 ± 0.021
150. AGACACAC  0.174 ± 0.041
151. GATTTGCA  0.186 ± 0.033
152. GTCCAACA  0.198 ± 0.045
153. GCGCCTCC  0.203 ± 0.042
154. GTTTAGCA  0.209 ± 0.019
155. AACAACTA  0.232 ± 0.0059
156. ATGTTGTC  0.237 ± 0.041
157. ATATGTGA  0.24 ± 0.064
158. CTGGCACA  0.241 ± 0.0048
159. ATTTTCGC  0.278 ± 0.036
160. CACGTTGA  0.29 ± 0.072
161. AGGTGCGC  0.293 ± 0.023
162. CCGTGCGA  0.294 ± 0.016
163. GCGAAAAA  0.296 ± 0.052
164. ACACCGTG  0.3051 ± 0.0018
165. CACGACAC  0.314 ± 0.0061
166. AATAGCAC  0.325 ± 0.023
167. CACACATG  0.352 ± 0.0023
168. GCGACAAC  0.363 ± 0.023
169. ATCAACAC  0.369 ± 0.019
170. CACTTGTC  0.402 ± 0.0079
171. CACCTCCG  0.447 ± 0.0095
172. CTTCACAC  0.4785 ± 0.0022
